# Reference: PubChem BioAssay AID485364 (National Center for Advancing Translational Sciences (NCATS), 2010)
# In all, about 360,000 compounds went through this assay and about 11,000 (3.1%) were called active. Inconclusive means that the source gave no clear call. Such entries were picked first, then a sample of the others. Calls follow the shape of the dose curve; as a rule, active = well fitted inhibition curve with a large enough effect; inconclusive = small, poorly fitted or top-dose-only effect; inactive = no such curve, though single readings can be large or run the other way. Potencies of inconclusive entries are left out as doubtful fits.
# Target: Schistosoma mansoni thioredoxin glutathione reductase (TGR) (UniProt Q962Y6)
# Test: qHTS Assay for the Inhibitors of Schistosoma Mansoni Peroxiredoxins; also: nearly all actives have a fitted effect of over 60% in size
# Details: purified TGR, DTNB reduction, TNB absorbance 405 nm; activity change, negative = inhibition: at 114 µM (top of the series) unless noted
# How it was run: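 First, TGR (20 nM dispensed) and NADPH were mixed with compound. Second, a 15 min room-temperature incubation followed. Third, further NADPH and then DTNB were added to start the reaction. Finally, TNB absorbance was monitored kinetically.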
# % is scaled to controls: 0 for no effect and ±100 for the full control effect; potency is read from the fitted curve at half-maximal effect; tags tell the direction and shape of the fitted curve.
Structure (SMILES),"activity change, negative = inhibition",Potency
O=C(CC(Nc1ccccc1)c1ccccc1)C1CC1 (stereo not given),inactive: -1.09%,
COc1ccc(NC(=O)/C(=C/c2ccc(OC(C)=O)c(OC)c2)NC(C)=O)cc1,,"inconclusive [inhibitor, partial curve]"
Cc1ccc(NC(=S)NCC2CCN(C(C)c3ccccc3)C2)cc1 (stereo not given),,"inconclusive [inhibitor, partial curve]"
OCCC1CN(Cc2nc3c(s2)CCCC3)CCN1Cc1ccsc1 (stereo not given),,"inconclusive [inhibitor, partial curve]"
COc1cc(/C=N/n2c(=S)[nH]nc(C)c2=O)cc([N+](=O)[O-])c1O,,"inconclusive [inhibitor, partial curve]"
O=C(CSc1ncn[nH]1)Nc1ccc(Cl)c(Cl)c1,,"inconclusive [inhibitor, partial curve]"
O=C1CSC(c2cccnc2)N1Cc1ccc(Cl)cc1Cl (stereo not given),inactive: -11.7%,
O=C(Nc1ncc(Br)s1)C(Cc1ccccc1)n1cccc1 (stereo not given),,"inconclusive [inhibitor, partial curve]"
CCn1c(O)c(C=Nc2ccc(S(N)(=O)=O)cc2)c(=O)n(CC)c1=S,,"inconclusive [inhibitor, partial curve]"
Cc1onc(C(=O)Nc2sc3c(c2C(N)=O)CCCC3)c1[N+](=O)[O-],,"inconclusive [inhibitor, full curve]"
CCc1ccccc1NC(=O)CN(C)C(=O)Cn1ncc(Cl)c(Cl)c1=O,,"inconclusive [inhibitor, partial curve]"
Cc1cc(OC(C)C(=O)NCC2CCC(C(=O)O)CC2)c2c(C)c(Cc3ccccc3)c(=O)oc2c1 (stereo not given),,"inconclusive [inhibitor, partial curve]"
COc1cc2cc(CNc3ccccc3)c(=O)n(CC(=O)Nc3cccc(Cl)c3C)c2cc1OC,,"inconclusive [inhibitor, partial curve, poor fit]"
COc1cc(Sc2ccc(C)cc2)c(OC)cc1N,,"inconclusive [inhibitor, partial curve]"
O=C(Nc1ccc(Cl)cc1)[C@@H]1[C@@H]2C(=O)N(c3cccc(F)c3)C(=O)[C@@H]2[C@H]2C=CC=NN21,,active: 22.4 µM
CCOC(=O)c1cc(C#N)c(N2CCCNCC2)nc1C(F)(F)F,,"inconclusive [inhibitor, partial curve]"
Clc1ccccc1Cn1c(/C=C/c2ccco2)nc2ccccc21,,active: 31.6 µM
Cc1cc(C)nc(N/N=C/c2ccco2)n1,inactive: -12.8%,
Cc1oc2c(Cl)c(Cl)c(O)c(CN(C)C)c2c1C(=O)c1ccc(Cl)cc1,,"inconclusive [inhibitor, full curve, poor fit]"
COC(=O)COc1ccc(C(C2C(=O)CC(C)(C)CC2=O)C2C(=O)CC(C)(C)CC2=O)cc1,,"inconclusive [inhibitor, full curve, poor fit]"
C/C(=C\c1ccc(N(C)C)cc1)[N+](=O)[O-],inactive: 0%,
Oc1cc(Br)ccc1C=Nc1ccc(N2CCCCC2)cc1,,"inconclusive [inhibitor, partial curve]"
O=C1NC(=O)C(=Cc2cn(CCOc3ccc4c(c3)OCO4)c3ccccc23)C(=O)N1,,"inconclusive [inhibitor, full curve, poor fit]"
CC[C@H](C)NC(=O)CCCCCn1c(=S)[nH]c2c([nH]c3ccc(OC)cc32)c1=O,inactive: -6.76%,

Structure (SMILES),"activity change, negative = inhibition",Potency
COC(=O)CSCc1nc2ccccc2[nH]c1=O,,"inconclusive [inhibitor, partial curve]"
CN(C)S(=O)(=O)c1cccc(NC(=O)c2ccc(S(=O)(=O)N3CCCC3)cc2)c1,inactive: 1.5%,
CN(C)S(=O)(=O)c1ccc(S(=O)(=O)NCc2cccs2)cc1,inactive: 0.255%,
COc1cc(NC(=O)c2ccc(OC)c([N+](=O)[O-])c2)ccc1NC(=O)c1cccs1,inactive: -6.28%,
COc1cccc(NC(=S)NCc2cccnc2)c1,,active: 44.7 µM
CC1(C)Cc2c(c(N3CCOCC3)nc3sc4c(NCc5ccco5)nnnc4c23)CS1,,active: 39.8 µM
Cc1cccc(N2CCN(C(=O)CS(=O)(=O)Cc3nc(-c4ccccc4C)oc3C)CC2C)c1 (stereo not given),inactive: 5.66%,
CN(C)S(=O)(=O)c1ccc(NC(=S)NC(=O)c2ccc(Br)o2)cc1,,"inconclusive [inhibitor, full curve]"
O=[N+]([O-])c1ccc(NC(=S)NCCc2ccc(Cl)cc2)cc1,,"inconclusive [inhibitor, full curve]"
CCOC(=O)c1oc2cc(OC(C)=O)ccc2c(=O)c1-c1ccc(OC)c(OC)c1,,"inconclusive [inhibitor, partial curve]"
Nc1nc(-c2ccco2)nn1S(=O)(=O)c1ccccc1,,"inconclusive [inhibitor, partial curve]"
COc1ccc(OC)c2nc(-c3ccc4c(c3)OCO4)ccc12,inactive: 10.8%,
Cc1nnc(NC(=O)c2ccccc2)s1,,"inconclusive [inhibitor, single point]"
CCN(CC)CCCNC(=O)CC1Sc2ccccc2NC1=O (stereo not given),,"inconclusive [inhibitor, single point]"
CCN1CCN(c2cc(C)c3cc(NC(=O)c4ccncc4)ccc3n2)CC1,,"inconclusive [inhibitor, single point]"
COCCCn1c(N)c(C(=O)NCc2ccco2)c2nc3ccccc3nc21,,active: 7.08 µM
CCOC(=O)C1CCN(C(=O)Cn2cccc2C(=O)c2ccccc2)CC1,inactive: -2%,
CC(=O)c1cccc(CN2CCN(Cc3ccc(F)cc3)C(CCO)C2)c1 (stereo not given),,active: 44.7 µM
N#Cc1ccc(CSc2nnc(Cc3cccs3)n2Cc2ccco2)cc1,,active: 11.2 µM
CCOC(=O)c1ccc(NC(=O)C2=C(C)Nc3nc(CCCO)nn3C2c2ccc(OC)cc2)cc1 (stereo not given),inactive: -1.05%,
CC1=C(C(=O)Nc2cc(Cl)ccc2C)C(c2cccs2)n2ncnc2N1 (stereo not given),inactive: 6.36%,
CCc1ccccc1Nc1nc(N)nc(COC(=O)c2cccn2C)n1,inactive: 1.27%,
CCN(CC)CCCNc1cc(C(F)(F)F)c(C#N)c2nc3ccccc3n12,,"inconclusive [inhibitor, single point]"
CC(=O)N1CCC(=NNc2ccc(S(=O)(=O)N3CCOCC3)cc2[N+](=O)[O-])CC1,,"inconclusive [inhibitor, partial curve]"

Structure (SMILES),"activity change, negative = inhibition",Potency
CCCC(c1nnnn1CCOC)N(Cc1cc2cc(C)c(C)cc2[nH]c1=O)CC1CCCO1 (stereo not given),,"inconclusive [inhibitor, partial curve]"
O=C(CC(C(=O)O)c1ccc(Cl)cc1)c1ccccc1 (stereo not given),inactive: -1.19%,
Cc1cccc(N(CC(=O)NC2CCCC2)C(=O)c2csnn2)c1C,inactive: -0.651%,
Cc1nc2ccc(NC(=O)c3cc(S(=O)(=O)N4CCOCC4)ccc3C)cc2s1,inactive: -19%,
O=C(/C=C\NCC(=O)c1ccccc1)c1ccc(F)cc1,,"inconclusive [inhibitor, partial curve]"
C[C@H]1CC[C@@H]2[C@@H](C)[C@H]3[C@H](C[C@H]4[C@@H]5CC=C6C[C@@H](O[C@@H]7O[C@H](CO)[C@H](O)[C@H](O[C@@H]8O[C@H](CO)[C@@H](O)[C@H](O)[C@H]8O)[C@H]7O[C@@H]7O[C@@H](C)[C@H](O)[C@@H](O)[C@H]7O)CC[C@]6(C)[C@H]5CC[C@]34C)N2C1,,"inconclusive [inhibitor, partial curve]"
O=C(/C(=C/c1ccc(Cl)cc1)c1nc2ccccc2[nH]1)c1cccs1,,"inconclusive [inhibitor, full curve]"
CS(=O)(=O)N(CCc1ccccc1)CC(=O)Nc1ccc2c(c1)OCO2,,"inconclusive [inhibitor, single point]"
CCCSC(=S)c1c(C)[nH]n(-c2ccccc2)c1=O,,"inconclusive [inhibitor, partial curve]"
O=C(OCC#CCSc1nnc(-c2cccc3ccccc23)o1)c1ccco1,,"inconclusive [inhibitor, full curve, poor fit]"
O=C(NC(=S)NCc1ccccc1)c1ccc2c(c1)OCO2,,active: 39.8 µM
COc1ccc(N2CCN(S(=O)(=O)c3cn(C)cn3)CC2)cc1,inactive: -5.39%,
COc1cc([C@H](Cc2ccccc2)NC(C)=O)oc(=O)c1,,"inconclusive [inhibitor, partial curve]"
CCOc1ccc(C(=O)NCC(c2ccco2)S(=O)(=O)c2ccc(C)cc2)cc1 (stereo not given),,"inconclusive [inhibitor, partial curve]"
c1ccc(CNc2nc3ccccc3c3nc(-c4ccccc4)nn23)cc1,inactive: 2.74%,
O=c1[nH]c(=S)n(CCC2=CCCCC2)c(O)c1/C=N/Nc1ccccc1,,"inconclusive [inhibitor, full curve, poor fit]"
O=C(NCCN1CCOCC1)c1cc2ccccc2oc1=O,inactive: 0.715%,
N#Cc1c(NC(=O)c2ccncc2)sc2c1CCC2,,"inconclusive [inhibitor, partial curve]"
CCOc1ccc(CCNC(=O)CCS(=O)(=O)c2ccc(OC)cc2)cc1OCC,,"inconclusive [inhibitor, full curve, poor fit]"
N#Cc1c(NC(=S)NC(=O)c2ccccc2)sc2c1CCCC2,,"inconclusive [inhibitor, partial curve]"
CCCc1cc2c(cc1NC(=O)c1ccc(Br)cc1)OCO2,inactive: 19.5%,
Cc1ccc(NC(=O)C2CCCN(C(=O)c3ccc(Cl)cc3)C2)cc1 (stereo not given),inactive: -2.9%,
